In the supplement of paper PMC8728848:
This is one part of the list.

Key:
Assay in all cases: glycan array binding signal (z-score within array); higher = stronger binding
Settings in all cases: glycan notation: IUPAC condensed, linker removed
[1] = target: Gal(b1-3)GlcNAc(b1-6)[Gal(b1-3)]GalNAc
Outline: (§1)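 From the Consortium for Functional Glycomics database, 3228 arrays were curated, keeping only those whose protein sequence was available. Binding is given as a within-array Z-score averaged across arrays sharing a protein sequence and across linkers. Negative Z-scores can be read as non-binding.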

Gal(b1-3)GlcNAc6S = target: Gal(b1-3)GlcNAc6S
Outline: as §1

[2] = target: Gal(b1-3)[Fuc(a1-4)]GlcNAc
Outline: as §1

[3] = target: Gal(b1-3)[Fuc(a1-4)]GlcNAc(b1-2)Man
Outline: as §1

[4] = target: Gal(b1-3)[Fuc(a1-4)]GlcNAc(b1-2)Man(a1-3)[Gal(b1-3)[Fuc(a1-4)]GlcNAc(b1-2)Man(a1-6)]Man(b1-4)GlcNAc(b1-4)[Fuc(a1-6)]GlcNAc
Outline: as §1

[5] = target: Gal(b1-3)[Fuc(a1-4)]GlcNAc(b1-3)Gal(b1-3)[Fuc(a1-4)]GlcNAc
Outline: as §1

[6] = target: Gal(b1-3)[Fuc(a1-4)]GlcNAc(b1-3)Gal(b1-4)[Fuc(a1-3)]GlcNAc
Outline: as §1

[7] = target: Gal(b1-3)[Fuc(a1-4)]GlcNAc(b1-6)GalNAc
Outline: as §1

[8] = target: Gal(b1-3)[GlcNAc(b1-6)]GalNAc
Outline: as §1

[9] = target: Gal(b1-3)[Neu5Ac(a2-6)]GalNAc
Outline: as §1

[10] = target: Gal(b1-3)[Neu5Ac(a2-6)]GlcNAc(b1-4)Gal(b1-4)Glc
Outline: as §1

[11] = target: Gal(b1-3)[Neu5Ac(b2-6)]GalNAc
Outline: as §1

Gal(b1-4)Gal = target: Gal(b1-4)Gal
Outline: as §1

[12] = target: Gal(b1-4)GalNAc(a1-3)[Fuc(a1-2)]Gal(b1-4)GlcNAc
Outline: as §1

[13] = target: Gal(b1-4)GalNAc(b1-3)[Fuc(a1-2)]Gal(b1-4)GlcNAc
Outline: as §1

Gal(b1-4)Glc = target: Gal(b1-4)Glc
Outline: as §1

Gal(b1-4)Glc6S = target: Gal(b1-4)Glc6S
Outline: as §1

Gal(b1-4)GlcNAc = target: Gal(b1-4)GlcNAc
Outline: as §1

[14] = target: Gal(b1-4)GlcNAc(a1-6)Gal(b1-4)GlcNAc
Outline: as §1

Gal(b1-4)GlcNAc(b1-2)Man = target: Gal(b1-4)GlcNAc(b1-2)Man
Outline: as §1

[15] = target: Gal(b1-4)GlcNAc(b1-2)Man(a1-3)Man(b1-4)GlcNAc(b1-4)GlcNAc
Outline: as §1

[16] = target: Gal(b1-4)GlcNAc(b1-2)Man(a1-3)[Gal(b1-4)GlcNAc(b1-2)Man(a1-6)]Man(b1-4)GlcNAc(b1-4)GlcNAc
Outline: as §1

[17] = target: Gal(b1-4)GlcNAc(b1-2)Man(a1-3)[Gal(b1-4)GlcNAc(b1-2)Man(a1-6)]Man(b1-4)GlcNAc(b1-4)[Fuc(a1-6)]GlcNAc
Outline: as §1

[18] = target: Gal(b1-4)GlcNAc(b1-2)Man(a1-3)[Gal(b1-4)GlcNAc(b1-2)Man(a1-6)][Gal(b1-4)GlcNAc(b1-4)]Man(b1-4)GlcNAc(b1-4)[Fuc(a1-6)]GlcNAc
Outline: as §1

[19] = target: Gal(b1-4)GlcNAc(b1-2)Man(a1-3)[Gal(b1-4)GlcNAc(b1-2)Man(a1-6)][GlcNAc(b1-4)]Man(b1-4)GlcNAc(b1-4)[Fuc(a1-6)]GlcNAc
Outline: as §1

[20] = target: Gal(b1-4)GlcNAc(b1-2)Man(a1-3)[GlcNAc(b1-2)Man(a1-6)]Man(b1-4)GlcNAc(b1-4)GlcNAc
Outline: as §1

[21] = target: Gal(b1-4)GlcNAc(b1-2)Man(a1-3)[GlcNAc(b1-4)][Gal(b1-4)GlcNAc(b1-2)Man(a1-6)]Man(b1-4)GlcNAc(b1-4)GlcNAc
Outline: as §1

[22] = target: Gal(b1-4)GlcNAc(b1-2)Man(a1-3)[Man(a1-6)]Man(b1-4)GlcNAc(b1-4)GlcNAc
Outline: as §1

[23] = target: Gal(b1-4)GlcNAc(b1-2)Man(a1-6)Man(b1-4)GlcNAc(b1-4)GlcNAc
Outline: as §1

[24] = target: Gal(b1-4)GlcNAc(b1-2)Man(a1-6)[GlcNAc(b1-2)Man(a1-3)]Man(b1-4)GlcNAc(b1-4)GlcNAc
Outline: as §1

[25] = target: Gal(b1-4)GlcNAc(b1-2)Man(a1-6)[Man(a1-3)]Man(b1-4)GlcNAc(b1-4)GlcNAc
Outline: as §1

[26] = target: Gal(b1-4)GlcNAc(b1-2)[Gal(b1-4)GlcNAc(b1-4)]Man(a1-3)[Gal(b1-4)GlcNAc(b1-2)Man(a1-6)]Man(b1-4)GlcNAc(b1-4)GlcNAc
Outline: as §1

[27] = target: Gal(b1-4)GlcNAc(b1-2)[Gal(b1-4)GlcNAc(b1-4)]Man(a1-3)[Gal(b1-4)GlcNAc(b1-2)[Gal(b1-4)GlcNAc(b1-6)]Man(a1-6)]Man(b1-4)GlcNAc(b1-4)GlcNAc
Outline: as §1

[28] = target: Gal(b1-4)GlcNAc(b1-2)[Gal(b1-4)GlcNAc(b1-4)]Man(a1-3)[GlcNAc(b1-4)][Gal(b1-4)GlcNAc(b1-2)Man(a1-6)]Man(b1-4)GlcNAc(b1-4)GlcNAc
Outline: as §1

[29] = target: Gal(b1-4)GlcNAc(b1-2)[Gal(b1-4)GlcNAc(b1-4)]Man(a1-3)[GlcNAc(b1-4)][Gal(b1-4)GlcNAc(b1-2)[Gal(b1-4)GlcNAc(b1-6)]Man(a1-6)]Man(b1-4)GlcNAc(b1-4)GlcNAc
Outline: as §1

[30] = target: Gal(b1-4)GlcNAc(b1-2)[Gal(b1-4)GlcNAc(b1-6)]Man(a1-6)[Gal(b1-4)GlcNAc(b1-2)Man(a1-3)]Man(b1-4)GlcNAc(b1-4)GlcNAc
Outline: as §1

[31] = target: Gal(b1-4)GlcNAc(b1-2)[Gal(b1-4)GlcNAc(b1-6)]Man(a1-6)[Gal(b1-4)GlcNAc(b1-2)Man(a1-3)]Man(b1-4)GlcNAc(b1-4)[Fuc(a1-6)]GlcNAc
Outline: as §1

[32] = target: Gal(b1-4)GlcNAc(b1-2)[Gal(b1-4)GlcNAc(b1-6)]Man(a1-6)[GlcNAc(b1-4)][Gal(b1-4)GlcNAc(b1-2)Man(a1-3)]Man(b1-4)GlcNAc(b1-4)GlcNAc
Outline: as §1

[33] = target: Gal(b1-4)GlcNAc(b1-2)[Gal(b1-4)GlcNAc(b1-6)]Man(a1-6)[GlcNAc(b1-4)][Gal(b1-4)GlcNAc(b1-2)[Gal(b1-4)GlcNAc(b1-4)]Man(a1-3)]Man(b1-4)GlcNAc(b1-4)[Fuc(a1-6)]GlcNAc
Outline: as §1

[34] = target: Gal(b1-4)GlcNAc(b1-3)Gal(b1-3)GalNAc
Outline: as §1

[35] = target: Gal(b1-4)GlcNAc(b1-3)Gal(b1-3)GlcNAc
Outline: as §1

[36] = target: Gal(b1-4)GlcNAc(b1-3)Gal(b1-4)Glc
Outline: as §1

[37] = target: Gal(b1-4)GlcNAc(b1-3)Gal(b1-4)GlcNAc
Outline: as §1

[38] = target: Gal(b1-4)GlcNAc(b1-3)Gal(b1-4)GlcNAc(b1-2)Man(a1-3)[Gal(b1-4)GlcNAc(b1-3)Gal(b1-4)GlcNAc(b1-2)Man(a1-6)]Man(b1-4)GlcNAc(b1-4)GlcNAc
Outline: as §1

[39] = target: Gal(b1-4)GlcNAc(b1-3)Gal(b1-4)GlcNAc(b1-2)Man(a1-3)[Gal(b1-4)GlcNAc(b1-3)Gal(b1-4)GlcNAc(b1-2)Man(a1-6)]Man(b1-4)GlcNAc(b1-4)[Fuc(a1-6)]GlcNAc
Outline: as §1

B1: Clone730PsrP (Streptococcus pneumoniae) (protein)
chain: MDHHHHHHHHHHASENLYFQGAMVVGSQTAAATEATAKKVEEDRKKPASDYVASVTNVNLQSYAKRRKRSVDSIEQLLASIKNAAVFSGNTIVNGAPAINASLNIAKSETKVYTGEGVDSVYRVPIYYKLKVTNDGSKLTFTYTVTYVNPKTNDLGNISSMRPGYSIYNSGTSTQTMLTLGSDLGKPSGVKNYITDKNGRQVLSYNTSTMTTQGSGYTWGNGAQMNGFFAKKGYGLTSSWTVPITGTDTSFTFTPYAARTDRIGINYFNGGGKVVESSTT
[1]
  glycan array binding signal (z-score): -0.501
Gal(b1-3)GlcNAc6S
  glycan array binding signal (z-score): -0.543
[2]
  glycan array binding signal (z-score): 0.134
[3]
  glycan array binding signal (z-score): -0.57
[4]
  glycan array binding signal (z-score): 0.133
[5]
  glycan array binding signal (z-score): -0.6
[6]
  glycan array binding signal (z-score): -0.554
[7]
  glycan array binding signal (z-score): -0.533
[8]
  glycan array binding signal (z-score): -0.223
[9]
  glycan array binding signal (z-score): -0.508
[10]
  glycan array binding signal (z-score): -0.371
[11]
  glycan array binding signal (z-score): -0.592
Gal(b1-4)Gal
  glycan array binding signal (z-score): -0.482
[12]
  glycan array binding signal (z-score): -0.441
[13]
  glycan array binding signal (z-score): -0.523
Gal(b1-4)Glc
  glycan array binding signal (z-score): -0.015
Gal(b1-4)Glc6S
  glycan array binding signal (z-score): -0.098
Gal(b1-4)GlcNAc
  glycan array binding signal (z-score): -0.123
[14]
  glycan array binding signal (z-score): 0.369
Gal(b1-4)GlcNAc(b1-2)Man
  glycan array binding signal (z-score): 1.47
[15]
  glycan array binding signal (z-score): -0.353
[16]
  glycan array binding signal (z-score): -0.345
[17]
  glycan array binding signal (z-score): -0.152
[18]
  glycan array binding signal (z-score): -0.252
[19]
  glycan array binding signal (z-score): -0.249
[20]
  glycan array binding signal (z-score): -0.379
[21]
  glycan array binding signal (z-score): -0.351
[22]
  glycan array binding signal (z-score): -0.069
[23]
  glycan array binding signal (z-score): -0.294
[24]
  glycan array binding signal (z-score): -0.191
[25]
  glycan array binding signal (z-score): -0.475
[26]
  glycan array binding signal (z-score): -0.616
[27]
  glycan array binding signal (z-score): -0.51
[28]
  glycan array binding signal (z-score): -0.48
[29]
  glycan array binding signal (z-score): -0.089
[30]
  glycan array binding signal (z-score): -0.542
[31]
  glycan array binding signal (z-score): -0.33
[32]
  glycan array binding signal (z-score): -0.616
[33]
  glycan array binding signal (z-score): -0.603
[34]
  glycan array binding signal (z-score): -0.344
[35]
  glycan array binding signal (z-score): -0.406
[36]
  glycan array binding signal (z-score): 0.441
[37]
  glycan array binding signal (z-score): -0.274
[38]
  glycan array binding signal (z-score): 0.265
[39]
  glycan array binding signal (z-score): -0.138
